Data reported in PubChem BioAssay AID624296 (National Center for Advancing Translational Sciences (NCATS), 2012).
The campaign covered roughly 350,000 compounds. About 9,900 (2.8%) were called active. The shares of active, inactive and inconclusive entries below differ from those in the screen. The call rests on the fitted dose curve; in most records, active means well fitted activation curve with a large enough effect; inconclusive means small, poorly fitted or top-dose-only effect; inactive means no such curve, though single readings can be large or run the other way. Potencies of inconclusive entries are left out as doubtful fits.

Test: A quantitative high throughput screen for small molecules that induce DNA re-replication in MCF 10a normal breast cells. Further: nearly all actives have a fitted effect of over 50% in size. On activity, positive = re-replication: % of control where 0% means no effect.
Details: MCF 10A DNA re-replication, Hoechst nuclear intensity, 48 h; activity, positive = re-replication: at 46.1 µM (top of the series)
Potency means the concentration at half of the fitted maximal effect; tags describe the fitted curve by direction and shape.

**Q.** Which Potency does the source give for `c1ccc(C2CC(c3cccs3)=NN2c2ccccc2)cc1` (stereo not drawn) here?
**A.** inconclusive [activator, full curve, poor fit]

**Q.** Which Potency does the source give for `CCCCC(CC)CN=C(N)NC(N)=NCCCCCCN=C(N)NC(N)=NCC(CC)CCCC` (stereo not drawn) here?
**A.** active: 11.9 µM

**Q.** Which “activity, positive = re-replication” value does the source give for `Cc1csc(NC(=O)C2COc3ccccc3O2)n1` (stereo not drawn) here?
**A.** inactive: -0.192%

**Q.** With `COc1ccc(Cc2nnc(SC(C)C(=O)Nc3ccc(C(N)=O)cc3)o2)cc1` (stereo not drawn) as the molecule, how does the “activity, positive = re-replication” value read?
**A.** inactive: -3.63%

**Q.** For `COc1cc(CNCCc2c[nH]c3ccccc23)cc(Cl)c1OCC(N)=O`, which Potency is on record?
**A.** inconclusive [activator, single point]

**Q.** For `O=C(NNC1=Nc2cccc3cccc1c23)c1ccc(Br)cc1`, which Potency is on record?
**A.** active: 14.6 µM

**Q.** Which Potency does the source give for `CCOc1cnn(-c2ccccc2)c(=O)c1Cl` here?
**A.** active: 25.9 µM

**Q.** For `COc1cc(NC(=S)NCCO)c(OC)cc1Cl`, which Potency is on record?
**A.** inconclusive [activator, single point]

**Q.** For `CC(C)OC(=O)c1cc(C(=O)c2cc(F)ccc2O)coc1=N`, which “activity, positive = re-replication” value is on record?
**A.** inactive: 4.01%

**Q.** For `Cc1ccc(NC(=O)c2cc(S(=O)(=O)N3CCOCC3)cn2C)cc1F`, which “activity, positive = re-replication” value is on record?
**A.** inactive: -2.08%

**Q.** With `CCN(CC)CCNC(=O)COc1ccc(Cl)cc1` as the molecule, how does the “activity, positive = re-replication” value read?
**A.** inactive: -0.297%

**Q.** With `CC(C)(C)C(=O)N1CCN(c2ccc([N+](=O)[O-])cc2Cl)CC1` as the molecule, how does the “activity, positive = re-replication” value read?
**A.** inactive: 0.266%

**Q.** For `S=C(NCC1CCCO1)Nc1ccccc1` (stereo not drawn), which “activity, positive = re-replication” value is on record?
**A.** inactive: -6.97%

**Q.** For `COc1ccc(C(=O)N2CCN(c3nc4ccccc4o3)CC2)cc1OC`, which “activity, positive = re-replication” value is on record?
**A.** inactive: -0.265%

**Q.** Which Potency does the source give for `CC(C)(C)c1ccc(C(=O)OC/C(O)=C(\C#N)c2nc3ccccc3s2)cc1` here?
**A.** inconclusive [activator, single point]

**Q.** With `C[C@@]12C(=O)Nc3ccc(F)cc3C(=O)N1[C@H]1c3cc(Br)ccc3OC[C@@H]1[C@@H]2c1ccccc1` as the molecule, how does the Potency read?
**A.** inconclusive [activator, partial curve, poor fit]

**Q.** Which Potency does the source give for `Cc1ccccc1N=C1NC(=O)/C(=C/c2cccn2-c2cccc(C(=O)O)c2)S1` here?
**A.** inconclusive [activator, single point]

**Q.** Which Potency does the source give for `CCOC(=O)c1sc2nc(C3CC3)cc(-c3ccc(OC)cc3)c2c1N` here?
**A.** active: 3.66 µM

**Q.** Which Potency does the source give for `COc1ccc(NC(=O)CNc2cc(S(=O)(=O)N3CCOCC3)ccc2N2CCOCC2)c(OC)c1` here?
**A.** inconclusive [activator, partial curve, poor fit]

**Q.** For `Cc1cccc(C(=O)OC2CCN(C)CC2)c1`, which Potency is on record?
**A.** inconclusive [activator, partial curve, poor fit]

**Q.** For `CC(C(=O)NCc1ccc(Cl)cc1)n1cccc1C(=O)c1ccccc1` (stereo not drawn), which Potency is on record?
**A.** inconclusive [activator, partial curve]

**Q.** With `Cc1cccc2cc(C#N)c(N3CCC(O)CC3)nc12` as the molecule, how does the Potency read?
**A.** inconclusive [activator, partial curve]

**Q.** For `Cc1ccc(NC(=O)COC(=O)C2(c3ccc(Cl)cc3)CCCC2)cc1`, which Potency is on record?
**A.** active: 20.6 µM

**Q.** Which Potency does the source give for `Cc1cccc(NC(=S)NNc2cccc(Cl)c2)c1` here?
**A.** inconclusive [activator, single point]

**Q.** Which “activity, positive = re-replication” value does the source give for `Cc1ccccc1N(CC(=O)NCCSC1CCCCC1)S(=O)(=O)c1ccccc1` here?
**A.** inactive: 20.1%

**Q.** For `CC(NC(=O)C1CCN(S(=O)(=O)c2ccc3nc4c(c(C(=O)O)c3c2)CCCC4)CC1)c1ccccc1` (stereo not drawn), which “activity, positive = re-replication” value is on record?
**A.** inactive: -1.21%

**Q.** Which “activity, positive = re-replication” value does the source give for `CC(=O)c1cccc(NC(=O)C(C)OC(=O)c2ccc(Br)o2)c1` (stereo not drawn) here?
**A.** inactive: -3.22%

**Q.** Which Potency does the source give for `CC(C(=O)N(C)C1CCS(=O)(=O)C1)N1C(=O)/C(=C/c2ccco2)SC1=S` (stereo not drawn) here?
**A.** inconclusive [activator, single point]

**Q.** Which Potency does the source give for `O=c1nc2n(CCO)c3ccccc3cc-2c(=O)[nH]1` here?
**A.** inconclusive [activator, single point]

**Q.** With `O=C(CN1CCCCCC1)Nc1ccccc1F` as the molecule, how does the Potency read?
**A.** inconclusive [activator, single point]

**Q.** With `Cc1ccc(NC(=O)CN2CCc3cc4c(cc3C2)OCCCO4)cc1C` as the molecule, how does the Potency read?
**A.** inconclusive [activator, partial curve]

**Q.** For `Cc1ccc(OCC(=O)NCCCNC(=O)c2ccccn2)cc1C`, which “activity, positive = re-replication” value is on record?
**A.** inactive: 8.28%

**Q.** With `Cc1n[nH]c(=S)n(/N=C/c2ccccn2)c1=O` as the molecule, how does the “activity, positive = re-replication” value read?
**A.** inactive: -2.99%

**Q.** With `COc1ccccc1CCc1nnc(CCC(=O)NCC[C@@H]2C[C@@H]3C=C[C@H]2C3)o1` as the molecule, how does the “activity, positive = re-replication” value read?
**A.** inactive: 20.4%

**Q.** With `CC(C)c1nc(SCC(=O)NC2CCCCC2)c2ccccc2n1` as the molecule, how does the “activity, positive = re-replication” value read?
**A.** inactive: 1.23%

**Q.** For `Oc1ccc(-c2nc(=S)[nH][nH]2)cc1`, which “activity, positive = re-replication” value is on record?
**A.** inactive: 1.21%

**Q.** For `CC(=O)NCCC(=O)N(C)CC1CCN(CCc2cccc(C(F)(F)F)c2)CC1`, which Potency is on record?
**A.** inconclusive [activator, partial curve, poor fit]

**Q.** For `CCN(CC)S(=O)(=O)c1cccc(-c2nnc(SCCOc3ccccc3C)o2)c1`, which Potency is on record?
**A.** inconclusive [activator, partial curve, poor fit]

**Q.** With `CCC(C)[C@H]1CNC(=S)N1CCc1cc(C(F)(F)F)cc(C(F)(F)F)c1` (stereo partly drawn) as the molecule, how does the Potency read?
**A.** inconclusive [activator, partial curve, poor fit]

**Q.** With `COc1cc(C(C(=O)NC2CCCCC2)N(Cc2ccco2)C(=O)c2cnccn2)cc(OC)c1OC` (stereo not drawn) as the molecule, how does the Potency read?
**A.** inconclusive [activator, single point]

**Q.** For `COc1ccc(-c2oc(=O)c3cc(OC)c(OC)cc3c2C#CCCO)cc1`, which “activity, positive = re-replication” value is on record?
**A.** inactive: 25.8%

**Q.** With `Cc1cccc(Nc2nc(-c3ccc4c(c3)OCCO4)cs2)c1` as the molecule, how does the Potency read?
**A.** active: 14.1 µM

**Q.** With `O=S(=O)(c1ccccc1)c1nc(-c2ccccc2Cl)oc1NCCN1CCOCC1` as the molecule, how does the Potency read?
**A.** inconclusive [activator, full curve, poor fit]

**Q.** Which Potency does the source give for `CCn1cc(Br)c(C(=O)N2CCN(c3ccccc3)CC2)n1` here?
**A.** inconclusive [activator, partial curve, poor fit]

**Q.** Which “activity, positive = re-replication” value does the source give for `CC(=S)/C=C1\Sc2ccccc2N1C` here?
**A.** inactive: 0.975%

**Q.** For `COc1cccc(N2CCN(c3ncnc4c3[nH]c3ccc(F)cc34)CC2C)c1` (stereo not drawn), which Potency is on record?
**A.** inconclusive [activator, partial curve, poor fit]

**Q.** For `CC(=C\c1ccccc1)/C=C1/SC(=S)N(C(C(=O)O)C(C)C)C1=O` (stereo not drawn), which Potency is on record?
**A.** inconclusive [activator, single point]

**Q.** Which “activity, positive = re-replication” value does the source give for `CC(C)c1ccc(S(=O)(=O)N2CCN(C(C)C(=O)N3CCCC3)CC2)cc1` (stereo not drawn) here?
**A.** inactive: 2.15%
